Experimental data as given in PubChem BioAssay AID686979 (National Center for Advancing Translational Sciences (NCATS), 2013).
The whole screen tested about 420,000 compounds, of which about 50,000 (12%) were called active. The shares of active, inactive and inconclusive entries below differ from those in the screen. Calls come from the whole dose curve; as a rule, active = well fitted inhibition curve with a large enough effect; inconclusive = small, poorly fitted or top-dose-only effect; inactive = flat fitted curve, though single readings scatter. No potency is given beside an inconclusive call; the fits are too rough.
% is set by controls: 0 for no effect and ±100 for the full control effect; potency is the fitted concentration of half-maximal effect; tags give direction and shape of the fitted curve.

Assay: qHTS for Inhibitors of human tyrosyl-DNA phosphodiesterase 1 (TDP1): qHTS in cells in presence of CPT; note: nearly all actives have a fitted effect of over 55% in size
Settings: chicken DT40 Tdp1-/-;hTDP1 cells + 20 nM CPT, ATP luminescence, 48 h; activity change, negative = growth inhibition: at 46.2 µM (top of the series)
Outline: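 Chicken DT40 Tdp1-/- cells complemented with human TDP1, 400 cells/well, exposed to compounds plus 20 nM camptothecin for at least 48 h at 37 C; viability read as ATP content by CellTiter-Glo luminescence.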
In the case of `CC1(C)CC(NC(=O)CC(c2ccccc2)c2ccccc2)CC(C)(C)N1`, the “activity change, negative = growth inhibition” value is reported as inactive: -3.01%.
With `CCCC1=C(C(=O)OCC)C(c2ccc(OC)c(CSc3ccccn3)c2)C(C#N)=C(N)O1` (centres undefined) the Potency was inconclusive [inhibitor, single point].
With `CCCCCC(O)(c1ccc(OCC)cc1)C(CN1CCOCC1)c1ccccc1` (centres undefined) the Potency was inconclusive [inhibitor, single point].
With `CCOc1ccc(S(=O)(=O)NCc2nc3cccnc3n2Cc2ccccc2OC)cc1` the Potency was inconclusive [inhibitor, single point].
In the case of `C/C(=N\N=C(N)N)c1ccc(Cl)cc1Cl`, the Potency is reported as active: 8.2 µM.
With `Cc1nc2ccc(S(=O)(=O)NC(CC(C)C)C(=O)NCc3ccc(Cl)cc3)cc2s1` (centres undefined) the Potency was inconclusive [inhibitor, single point].
With `COc1ccc(Cc2nc3ccc(C(=O)NCc4cccc(C)n4)cc3o2)cc1OC` the Potency was active: 18.4 µM.
With `CC(C)C(C)(C#N)NC(=O)CSc1ncnc2sc(-c3ccccc3)cc12` (centres undefined) the Potency was inconclusive [inhibitor, single point].
In the case of `CCCc1nc2ccccc2c(=O)n1CCc1ccccc1`, the Potency is reported as active: 13 µM.
In the case of `[O-][n+]1ccc(C(O)c2ccccc2)cc1` (centres undefined), the “activity change, negative = growth inhibition” value is reported as inactive: -9.69%.
In the case of `CCOC(=O)C1CCCN(c2cc(C)nc3cc(-c4ccc(Cl)cc4)nn23)C1` (centres undefined), the Potency is reported as inconclusive [inhibitor, single point].
In the case of `CCOC(=O)N1CCN(C(=O)CS(=O)(=O)Cc2nc(-c3ccccc3C)oc2C)CC1`, the Potency is reported as inconclusive [inhibitor, single point].
With `O=C(Cn1c(=O)n(Cc2ccccc2)c(=O)c2sc3ccccc3c21)Nc1ccc(F)cc1` the Potency was active: 14.6 µM.
For `O=C(/C=C/c1ccco1)Nc1sc2c(c1C(=O)O)CCC2`, the “activity change, negative = growth inhibition” value was inactive: -7.41%.
With `Cc1cc(C(=O)CSc2nnc(-c3cccs3)o2)c(C)n1-c1ccccc1` the Potency was inconclusive [inhibitor, single point].
For `Cc1ccc(C)c(S(=O)(=O)N2CCN(C(=O)Cc3sc(C)nc3-c3ccc(F)cc3)CC2)c1`, the Potency was inconclusive [inhibitor, partial curve, poor fit].
In the case of `CC1=C(C(=O)N2CCN(c3ccc(Cl)cc3)CC2)C2(CCC(C)CC2)OC1=O` (centres undefined), the Potency is reported as inconclusive [inhibitor, single point].
With `NCCCCC(N)c1cn([C@@H](CCC(=O)O)C(=O)N2CCNCC2)nn1` (some centres undefined) the “activity change, negative = growth inhibition” value was inactive: -9%.
In the case of `CCOC(=O)c1nn(-c2ccc(OCC)cc2)c2nc(CC(C)C)c(C#N)c(=O)n12`, the “activity change, negative = growth inhibition” value is reported as inactive: -29.6%.
With `CCC(=NNS(=O)(=O)c1ccc(C)cc1)c1ccccc1` the “activity change, negative = growth inhibition” value was inactive: -9.77%.
With `O=C(NCc1ccccc1)NC1(C(=O)Nc2ccc3c(c2)OCCO3)CCCCC1` the Potency was inconclusive [inhibitor, single point].
In the case of `COc1ccc(NC(=O)/C=C/c2ccccc2)c([N+](=O)[O-])c1`, the Potency is reported as inconclusive [inhibitor, single point].
In the case of `CC1CCN(c2ccc3nnc(CCC(=O)Nc4cccc(F)c4)n3n2)CC1`, the Potency is reported as inconclusive [inhibitor, single point].
With `c1ccc(Cn2nnnc2C(c2ccccc2)N2CCN(c3nc4ccccc4s3)CC2)cc1` (centres undefined) the Potency was inconclusive [inhibitor, single point].
With `CCCCN(CC)CCCNC(=O)c1cc2c(=O)oc3ccc(C)cc3c2s1` the Potency was inconclusive [inhibitor, single point].
In the case of `Cc1c(NC(=O)C2CC(c3c(F)cccc3Cl)=NO2)c(=O)n(-c2ccccc2)n1C` (centres undefined), the activity change, negative = growth inhibition is reported as inconclusive: -24.2% [inhibitor].
With `COc1ccc(C(C(O)C(=O)c2c[nH]c3ccccc23)N2CCN(c3ccc(OC)cc3)CC2)cc1` (centres undefined) the Potency was inconclusive [inhibitor, single point].
With `COc1ccc(-c2sc3cc(OC)c(OC)cc3c2C#CC2(O)CCCCC2)cc1` the Potency was inconclusive [inhibitor, single point].
In the case of `Nc1c(C(=O)OCC(=O)Nc2ccc(OC(F)F)cc2)[nH]c(=O)[nH]c1=O`, the “activity change, negative = growth inhibition” value is reported as inactive: 1.58%.
With `CCCn1nc(C(=O)N2CCCc3ccccc32)c2ccccc2c1=O` the Potency was inconclusive [inhibitor, single point].
In the case of `CCOC(=O)c1sc(N(Cc2ccccc2)C(=O)CSc2ncn[nH]2)nc1C`, the Potency is reported as inconclusive [inhibitor, partial curve].
In the case of `Cc1cc(C)c(S(=O)(=O)N2CCCOC2CNC(=O)C(=O)NCc2ccccn2)c(C)c1` (centres undefined), the “activity change, negative = growth inhibition” value is reported as inactive: 4.52%.
In the case of `O=C(CCNC(=O)C1CCN(S(=O)(=O)c2ccccc2)CC1)NCCc1cccc(F)c1`, the Potency is reported as inconclusive [inhibitor, single point].
For `CCc1nc(N)nc(N)c1-c1ccc(Cl)c([N+](=O)[O-])c1`, the Potency was active: 0.184 µM.
With `O=C(CCN1c2ccccc2Sc2ccccc21)Oc1ccccc1` the “activity change, negative = growth inhibition” value was inactive: -7.88%.
In the case of `O=C(COc1cccc2ccccc12)Nc1ccc(Cl)cc1C(=O)O`, the Potency is reported as inconclusive [inhibitor, single point].
With `COc1cccc(OC2(C)CCN(Cc3ccc(-c4ccccn4)cc3)C2)c1` (centres undefined) the Potency was active: 20.6 µM.
With `CCOC(=O)c1cc(-c2ccccc2)n(CC(=O)NCc2ccccc2)c1C` the Potency was inconclusive [inhibitor, single point].
In the case of `COC1(OC)C(=N/O)/C(=N\O)CCC1O` (centres undefined), the “activity change, negative = growth inhibition” value is reported as inactive: -15.3%.
With `Cc1[nH]c2ccccc2c1CCN(Cc1cccnc1)C(=S)Nc1cccc(F)c1` the Potency was inconclusive [inhibitor, single point].
In the case of `CCOc1ccccc1-c1nc(-c2ccc(NC(=O)c3ccc(Br)o3)cc2)no1`, the Potency is reported as active: 23.1 µM.
With `O=c1[nH]c2cc3c(cc2cc1C(c1nnnn1C1CCCCC1)N1CCSCC1)OCCO3` (centres undefined) the Potency was inconclusive [inhibitor, single point].
With `Cc1ccc(N2CC(C(=O)N3CCCCC3)CC2=O)cc1C` (centres undefined) the Potency was inconclusive [inhibitor, partial curve].
With `O=C(COc1ccc(Cl)cc1)NCC(c1cccs1)S(=O)(=O)c1ccc(F)cc1` (centres undefined) the Potency was inconclusive [inhibitor, single point].
